According to PubChem BioAssay AID1963319 (National Center for Advancing Translational Sciences (NCATS), 2024):
The whole screen tested about 1,300 compounds, of which about 120 (9.2%) were called active. Inconclusive means that the source gave no clear call. Such entries were picked first, then a sample of the others. The call rests on the fitted dose curve; in most records, active means well fitted activation curve with a large enough effect; inconclusive means small, poorly fitted or top-dose-only effect; inactive means flat fitted curve, though single readings scatter. Potencies beside an inconclusive call are fits to weak or partial responses and may not hold up.

What follows are compounds tested against Luciferin 4-monooxygenase (Photinus pyralis) (UniProt P08659) (assay: Firefly luciferase (FLuc-C-HiBiT) SDR gain of signal screen - plus ATP). Details: purified FLuc-C-HiBiT + ATP, HiBiT complementation luminescence; series mostly up to 32.7 µM.
UniProt P08659, sequence (P08659 whole entry, looked up): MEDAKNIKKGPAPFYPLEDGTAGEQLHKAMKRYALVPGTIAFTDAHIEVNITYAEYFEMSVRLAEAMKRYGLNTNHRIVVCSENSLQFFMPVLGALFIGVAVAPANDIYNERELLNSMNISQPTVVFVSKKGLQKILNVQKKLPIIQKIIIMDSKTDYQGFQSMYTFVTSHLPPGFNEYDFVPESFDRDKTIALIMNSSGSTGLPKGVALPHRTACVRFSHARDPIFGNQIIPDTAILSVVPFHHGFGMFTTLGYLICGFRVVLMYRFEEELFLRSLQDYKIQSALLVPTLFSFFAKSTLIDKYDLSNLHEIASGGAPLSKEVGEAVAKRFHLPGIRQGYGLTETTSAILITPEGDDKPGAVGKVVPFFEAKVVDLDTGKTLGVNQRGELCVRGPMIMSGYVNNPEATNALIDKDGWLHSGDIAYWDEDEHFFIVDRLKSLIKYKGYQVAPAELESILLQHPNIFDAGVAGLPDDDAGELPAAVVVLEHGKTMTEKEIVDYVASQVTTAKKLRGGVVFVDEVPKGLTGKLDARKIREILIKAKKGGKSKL
In short: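 FLuc-C-HiBiT at 10 nM final with 10 uM ATP, incubated with compounds >30 min at room temperature. Nano-Glo HiBiT reagent then added; after 5-10 min, complementation luminescence read on CCD imager as gain of signal.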
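Further: signal reports ligand binding via conformational change of the enzyme rather than luciferase catalysis; nearly all actives have a fitted effect of over 55% in size.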
Potency means the concentration at half of the fitted maximal effect; tags describe the fitted curve by direction and shape.

Potency, inconclusive:
Cc1ccc(-c2cc3c(=O)n(CCNC(=O)C4CCCCC4)ccn3n2)c(C)c1 8.81 µM [activator, partial curve, poor fit], c1ccc(-c2noc(-c3ccc4ccccc4c3)n2)cc1 8.81 µM [activator, partial curve], O=C1c2cnc(-c3ccc(F)cc3F)nc2OCCN1CC1CC1 18 µM [activator, partial curve, poor fit], COC(=O)C1CCN(c2csc3ccc(C)cc3c2=O)CC1 1.97 µM [activator, full curve, poor fit], OC1CC(c2cc(N3CCc4c(Cl)cccc4C3)ncn2)C1 (stereo not given) 3.13 µM [activator, full curve, poor fit], COCCNC(=O)C1CCN(C(=O)c2nnn3c2COC(c2ccc(C)cc2)C3)CC1 (stereo not given) 7.85 µM [activator, partial curve], O=C(Nc1ccc(F)cc1)Nc1cccc(-c2ccc(N3CCOCC3)nn2)c1 5.56 µM [activator, partial curve, poor fit], CC(C)(Oc1ccc(-c2nc3cc(Cl)ccc3s2)cc1)C(=O)O 7 µM [activator, partial curve], Fc1ccc(-c2cn3cc(Cc4ccccc4)sc3n2)cc1 1.57 µM [activator, full curve], COc1cccc(-n2nnc(-c3nc(-c4ccccc4F)no3)c2C)c1 6.24 µM [activator, partial curve, poor fit], COc1ccc(-c2nc3ncccc3[nH]2)cc1 28.5 µM [activator, partial curve], COc1cccc(CNC(=O)Nc2cccc(-c3ccc(N4CCOCC4)nn3)c2)c1 9.89 µM [activator, partial curve], Cc1ccc(C2Cn3nnc(C(=O)N4CCC(C(=O)Nc5ccccc5)CC4)c3CO2)cc1 (stereo not given) 7 µM [activator, partial curve], CCOc1cccc2cc(-c3nc(-c4ccccc4C)no3)c(=O)oc12 12.4 µM [activator, partial curve], CN(C)C(=O)c1ccc(-c2cccc(-c3ccn(CC4CC4)n3)c2)o1 4.95 µM [activator, partial curve], Cc1cccc(NC(=O)N2CCc3c(C(=O)NC(C)(C)C)cccc32)c1 12.4 µM [activator, partial curve], COc1ccc(NC(=O)C2CCN(C(=O)c3ncn4c3COC(c3ccccc3)C4)CC2)cc1OC (stereo not given) 2.48 µM [activator, full curve], Cc1nnn2c(C(=O)NC3CC3)cccc12 31.9 µM [activator, partial curve, poor fit], Clc1ccc(-n2ncc3c(NC4CCCC4)ncnc32)cc1 12.4 µM [activator, partial curve], O=C1NCCCc2[nH]c(-c3cc(-c4cccc(F)c4)no3)nc21 12.4 µM [activator, partial curve], O=C(Nc1cccc(-c2ccc(N3CCOCC3)nn2)c1)Nc1ccccc1F 11.1 µM [activator, partial curve, poor fit], Clc1ccc(-c2cn3cc(Cc4ccccc4)sc3n2)cc1 1.76 µM [activator, full curve, poor fit], CC(=O)c1cccc(-c2nc3ccccc3s2)c1 11.1 µM [activator, partial curve, poor fit], O=C(NCc1ccc(F)cc1)C1CCN(C(=O)c2ncn3c2COC(c2ccccc2)C3)CC1 (stereo not given) 7 µM [activator, partial curve], CN(CCc1cn[nH]c1)c1ccc(-c2nc(-c3ccccc3F)no2)cn1 14 µM [activator, partial curve, poor fit], CC(=O)N1CCNc2cc(Nc3cccc(N(C)C)c3)ncc2C1 8.05 µM [activator, full curve, poor fit], COc1ccc(NC(=O)Nc2cccc(-c3ccc(N4CCOCC4)nn3)c2)cc1F 4.95 µM [activator, partial curve], COc1ccc(-c2cc(N3CCCC(NC(=O)c4ccc(OC)c(OC)c4)C3)n[nH]2)cc1 (stereo not given) 11.1 µM [activator, partial curve, poor fit], CSc1ccc(NC(=O)c2ccc3c(c2)N(C)C2CCCN2C3=O)cc1 (stereo not given) 14 µM [activator, partial curve], Cc1ccc(C2=NC3(CCN(C(=O)c4cccc(N(C)C)c4)CC3)ON2)cc1 8.81 µM [activator, partial curve], Cc1cccc(-n2ncc3c(N4CCCC(C)C4)ncnc32)c1 (stereo not given) 3.51 µM [activator, partial curve], Clc1cccc(-c2nc(-c3ccccn3)no2)c1 3.51 µM [activator, partial curve], Cc1cc(Cl)ccc1-n1ncc2c(N3CCCCC3)ncnc21 3.51 µM [activator, full curve, poor fit], COc1ccc2nc(-c3ccc(Oc4ccccc4)cc3)sc2c1 11.1 µM [activator, partial curve, poor fit], CCCc1ccc(-c2nc(C3CCOC3)no2)cc1 (stereo not given) 7 µM [activator, partial curve, poor fit], Cc1ccc(C)c(N2CCN(C(=O)C3CCN(c4nc(-c5ccc(C(C)C)cc5)no4)CC3)CC2)c1 8.81 µM [activator, partial curve], CCCC(=O)N1CCN(c2nc3ccc(F)cc3s2)CC1 6.24 µM [activator, full curve, poor fit], Cc1ccc(-c2noc(-c3ccccc3Br)n2)cc1 11.1 µM [activator, partial curve], COc1ccc(-c2ncc3c(n2)OCCN(c2ccccc2)C3=O)cc1F 3.6 µM [activator, full curve, poor fit], CC(C)(C)n1cc(-c2cc(C(=O)N3C[C@H]4CC[C@H]3C4)c3ccccc3n2)cn1 11.1 µM [activator, partial curve], O=C(Nc1ccccc1)c1nc2c(o1)CCN(Cc1ccccn1)CC2 4.04 µM [activator, full curve, poor fit]

Potency, inactive:
CCc1cccc(NCc2ccccc2-c2nnc(-c3ccccc3Cl)o2)c1, COc1cc(C)ccc1OCc1cc(C(=O)NCc2n[nH]c3c2CCC3)no1, Fc1ccc(-c2cc3c(cn2)CN(Cc2ccncc2)CCN3)cc1Cl, Cc1cc(F)ccc1OC1(C(=O)O)CCN(c2ncnc3nc[nH]c23)CC1, CC(=O)Nc1ccc(NC(=O)CCCc2nc(-c3ccc(C(C)(C)C)cc3)no2)cc1, COc1ccc2cc(C3CN(C(=O)Cc4ccc(O)cc4)CCO3)ccc2c1 (stereo not given), CC1=C[C@@H](CNC(=O)c2ccncc2)[C@H](C(C)C)C[C@H]1CC(=O)N1CCOCC1, COc1ccc(CNC(=O)c2ccc3c(c2)N=C(C)c2c(C)ccc(C)c2S3)cc1, Cc1ccc(C(=O)Nc2ccc(-c3nc4ccccc4s3)c(O)c2)cc1, O=C(COC(=O)c1cc(-c2cccs2)nc2ccccc12)c1ccc(Br)cc1, Nc1nc2c(ncn2COCCO)c(=O)[nH]1, CCOC(=O)C1CCCN(c2ncnc3c2cnn3-c2ccc(C)c(Cl)c2)C1 (stereo not given), CCOc1ccc(C(=O)Nc2cc(-c3nc4cc(OC)ccc4o3)ccc2C)cc1[N+](=O)[O-], Cc1c(C(=O)Nc2cccc(-c3nc4ccccc4s3)c2)oc2ccccc12, O=C(O)CCn1ncc2cc(OCc3ccc(-c4cccc(CO)c4)cc3)ccc21, CC(Cc1cnccn1)Nc1ccc(-c2nc(-c3cccc(Cl)c3)no2)cn1 (stereo not given), O=C(Nc1cc(-c2nc3ccccc3s2)ccc1Cl)c1cc2ccccc2o1, COc1ccc2c(C)c(-c3nc(C4CCOC4)no3)oc2c1 (stereo not given), O=C(Nc1ccc([C@H]2OCC(=O)N(Cc3ccncc3)[C@@H]2CO)cc1)c1ccc(C(F)(F)F)cc1, CN(CCc1ccccn1)c1ccc(-c2nc(COc3ccccc3)no2)cn1, O=C(Nc1ccccc1)N1CCc2nc(C3CC3)nc(-c3ccc(Cl)cc3)c2C1, COc1ccc(C(=O)NC2CCCN(c3cc(-c4ccc(Cl)cc4)[nH]n3)C2)cc1OC (stereo not given), CCN1c2cc(C(=O)Nc3ccc(N(C)C)cc3)ccc2C(=O)N2CCCCC21 (stereo not given), CCc1cccc(NC(=O)c2cc(-c3ccccc3)n[nH]2)c1

Potency, active:
O=C(O)c1ccc(-c2noc(-c3ccccc3Cl)n2)cc1 1.57 µM, OCC1CCCN(c2ncnc3c2cnn3-c2ccccc2)C1 (stereo not given) 0.785 µM, COc1ccc(NC(=O)N2CCc3c(C(=O)NCCN4CCCCCC4)cccc32)cc1 0.785 µM, Cc1ccc(-n2ncc3c(N4CCCCCC4)ncnc32)cc1 0.881 µM, COc1cccc2cc(C(=O)Nc3ccc(CC(=O)O)cc3)c(=O)oc12 1.76 µM
